About 520 (0.14%) of roughly 360,000 compounds were called active. Inconclusive means that the source gave no clear call. Such entries were picked first, then a sample of the others. Calls come from the whole dose curve; as a rule, active = well fitted inhibition curve with a large enough effect; inconclusive = small, poorly fitted or top-dose-only effect; inactive = no such curve, though single readings can be large or run the other way. Potencies of inconclusive entries are doubtful fits and often do not repeat.
What follows are compounds tested against Rap guanine nucleotide exchange factor 3 (Homo sapiens) (UniProt O95398) (assay: qHTS for Antagonist of cAMP-regulated guanine nucleotide exchange factor 3 (EPAC1): primary screen). Settings: EPAC1 GEF assay, Rap1b-BODIPY-GDP exchange fluorescence; activity change, negative = inhibition: at 115 µM (top of the series).
Note: nearly all actives have a fitted effect of over 50% in size.
Potency is the fitted concentration of half-maximal effect; tags give direction and shape of the fitted curve.
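Throughout, for activity change, negative = inhibition: plate controls were vehicle for no effect and positive control for full effect.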

Sequence of UniProt O95398 (O95398 whole entry, looked up): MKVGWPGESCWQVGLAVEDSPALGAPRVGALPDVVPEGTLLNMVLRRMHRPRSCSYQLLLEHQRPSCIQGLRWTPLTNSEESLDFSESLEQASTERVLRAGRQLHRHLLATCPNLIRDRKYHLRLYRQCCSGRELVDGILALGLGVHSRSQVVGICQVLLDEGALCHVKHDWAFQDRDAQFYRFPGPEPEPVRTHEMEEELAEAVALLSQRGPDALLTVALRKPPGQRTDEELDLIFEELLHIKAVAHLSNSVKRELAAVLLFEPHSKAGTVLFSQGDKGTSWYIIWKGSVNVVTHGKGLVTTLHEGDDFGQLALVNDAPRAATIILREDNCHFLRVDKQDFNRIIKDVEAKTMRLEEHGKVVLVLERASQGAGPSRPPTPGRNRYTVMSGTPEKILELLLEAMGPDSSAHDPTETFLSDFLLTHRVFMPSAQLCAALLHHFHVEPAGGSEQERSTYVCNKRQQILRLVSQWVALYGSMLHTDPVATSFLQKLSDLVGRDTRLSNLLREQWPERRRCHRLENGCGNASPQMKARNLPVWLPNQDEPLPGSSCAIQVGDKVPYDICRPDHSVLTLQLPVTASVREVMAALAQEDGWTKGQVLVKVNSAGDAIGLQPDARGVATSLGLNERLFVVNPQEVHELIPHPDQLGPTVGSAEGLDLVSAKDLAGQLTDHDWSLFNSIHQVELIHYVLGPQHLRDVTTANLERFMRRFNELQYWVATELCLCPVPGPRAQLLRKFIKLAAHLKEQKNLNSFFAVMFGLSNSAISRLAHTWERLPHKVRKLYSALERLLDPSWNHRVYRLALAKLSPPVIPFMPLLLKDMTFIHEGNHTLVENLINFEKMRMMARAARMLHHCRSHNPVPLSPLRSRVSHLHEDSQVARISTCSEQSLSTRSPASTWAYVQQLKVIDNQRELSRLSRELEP

Potency, inconclusive:
N#Cc1nc(COc2ccccc2F)oc1N1CCCCCC1 10 µM [inhibitor, partial curve]
CCc1cccc2c1NC(=O)[C@]21[C@@H]2C(=O)N(Cc3ccccc3)C(=O)[C@@H]2[C@@H]2CCCN21 100 µM [inhibitor, single point]
O=C(CCCOc1ccc(Cl)cc1Cl)N1CCN(c2ccccn2)CC1 0.224 µM [inhibitor, full curve, poor fit]
O=C(N/N=C/c1cccnc1)C1CC1(c1ccccc1)c1ccccc1 (stereo unspecified) 100 µM [inhibitor, partial curve, poor fit]
CC(C)CC(COCc1ccc(C(F)(F)F)cc1)N1CCN(C(=O)c2ccc(C(F)(F)F)cc2)CCC1=O (stereo unspecified) 3.16 µM [inhibitor, full curve]
CC(=O)Nc1cc(Cl)ccc1OS(=O)(=O)c1ccc(C)cc1 100 µM [inhibitor, single point]
C[C@@H]1O[C@@H](O[C@@H]2[C@@H](O)[C@H](OCCc3ccc(O)c(O)c3)O[C@H](CO)[C@H]2OC(=O)/C=C/c2ccc(O)c(O)c2)[C@H](O)[C@H](O)[C@H]1O 63.1 µM [inhibitor, partial curve, poor fit]
CCc1ccc(C(C)NC(=S)NCc2ccc(F)cc2)cc1 (stereo unspecified) 39.8 µM [inhibitor, full curve, poor fit]
COCCCNC(=O)c1c[nH]c2ccc(S(=O)(=O)N3CCc4ccccc43)cc2c1=O 89.1 µM [inhibitor, single point]
CN(C)c1ccc(/C=N/NC(=O)c2ccc(Cn3cc(Br)cn3)o2)cc1 100 µM [inhibitor, single point]
COc1ccc(N=C2S/C(=C\c3ccc(OCC(=O)O)cc3)C(=O)N2CCc2c[nH]c3ccccc23)cc1 8.91 µM [inhibitor, partial curve]
Cc1sc2ncnc(SCC(=O)N3CCOCC3)c2c1C 39.8 µM [inhibitor, full curve, poor fit]
CCOC(=O)CC1(NC(=O)c2cc(COc3c(F)cccc3F)on2)CCCCC1 20 µM [inhibitor, full curve, poor fit]
CCOc1ccccc1N(CC(=O)NCCSCc1ccco1)S(=O)(=O)c1ccccc1 100 µM [inhibitor, single point]
CCOC(=O)c1[nH]c2ccccc2c1NC(=O)c1ccc2c(c1)OCO2 39.8 µM [inhibitor, single point]
O=C(COC(=O)Cc1ccc(F)cc1)NC(=O)NC1CCCC1 39.8 µM [inhibitor, full curve, poor fit]
Cc1ccc(/C=C2\SC(=S)N(NS(=O)(=O)c3ccc(C)cc3)C2=O)cc1 79.4 µM [inhibitor, partial curve]
COc1ccccc1-c1cc(C(F)(F)F)nc(S(=O)(=O)CCCC(=O)N2CCOCC2)n1 89.1 µM [inhibitor, single point]
CCOC(=O)N1CCC(NC(=O)CS(=O)(=O)Cc2nc(-c3ccc(C)cc3)oc2C)CC1 39.8 µM [inhibitor, single point]
COC(=O)c1ccc(C(=O)OC)c(NC(=O)C2CC(=O)N(C3CCCC3)C2)c1 (stereo unspecified) 100 µM [inhibitor, single point]
O=C(CSc1n[nH]c(-c2ccco2)n1)Nc1ccc(F)cc1 50.1 µM [inhibitor, partial curve]
CC(N=Cc1cccc(O)c1O)c1ccccc1 (stereo unspecified) 56.2 µM [inhibitor, partial curve]
C=CCn1cc(C(=O)N2CCc3ccccc3C2)c(=O)c2cc(S(=O)(=O)N(CC)CC)ccc21 89.1 µM [inhibitor, single point]
CCOC(=O)CN(Cc1sccc1C)C(=O)Nc1ccc(OCC)cc1 100 µM [inhibitor, single point]
COc1ccc(NC(=S)NCc2ccccc2Cl)c(OC)c1 35.5 µM [inhibitor, partial curve, poor fit]
COc1cc(/C=C2/C(=O)NN(c3cccc(Cl)c3)C2=O)cc(OC)c1O 56.2 µM [inhibitor, partial curve, poor fit]
COc1ccc(OC)c(N(C(=O)c2snc(C(N)=O)c2N)C(C(=O)NCc2ccccc2)c2ccc(O)cc2)c1 (stereo unspecified) 100 µM [inhibitor, partial curve]
Cc1cc(/C=N/NC(=O)C(O)(c2ccccc2)c2ccccc2)c(C)n1-c1ccc(C(=O)O)cc1 89.1 µM [inhibitor, single point]
CN(C(=O)COC(=O)CCc1c[nH]c2ccccc12)C(c1ccccc1)c1ccccc1 39.8 µM [inhibitor, single point]
O=C(COc1ccccc1C(=O)Nc1ccccc1)NCCc1ccccc1 3.16 µM [inhibitor, full curve, poor fit]
O=C(COc1ccccc1Cl)NCCNC(=O)c1cnccn1 39.8 µM [inhibitor, single point]
Cc1ccc(S(=O)(=O)Nc2cc(=O)[nH]c(SCC(=O)Nc3cccc(C)c3)n2)cc1 100 µM [inhibitor, single point]
O=C(NNc1nc2c(F)cccc2s1)c1cc(=O)c2ccccc2o1 70.8 µM [inhibitor, single point]
Nc1ccc(O)c2c1C(=O)c1ccccc1C2=O 56.2 µM [inhibitor, partial curve]
COc1cc(/C=C/C(=O)Nc2cccc(S(=O)(=O)N3CCOCC3)c2)ccc1OCC#N 8.91 µM [inhibitor, full curve, poor fit]
COc1ccc(-c2ncccc2OC(=O)C23CC4CC(CC(C4)C2)C3)cc1OC 70.8 µM [inhibitor, single point]
O=C(/C=C/c1ccco1)Nc1ccc(-c2nc3ccccc3[nH]2)cc1 100 µM [inhibitor, single point]
O=C(Nc1nc(-c2ccco2)cs1)c1ccccc1 50.1 µM [inhibitor, partial curve]
CC(=O)c1ccc(NC(=O)CSc2ccsc2[N+](=O)[O-])cc1 79.4 µM [inhibitor, single point]
O=C(O)C1CCCCN1c1ccccc1[N+](=O)[O-] (stereo unspecified) 100 µM [inhibitor, single point]
CCOC(=O)Nc1sc(C)c(C)c1C(=O)OCC 2.82 µM [inhibitor, full curve, poor fit]
O=C(c1ccc(S(=O)(=O)N2CCCC2)cc1)N(Cc1ccco1)C1CCS(=O)(=O)C1 (stereo unspecified) 11.2 µM [inhibitor, full curve, poor fit]
O=C(O)c1cccc(NC(=O)c2cn(-c3ccccc3)nc2-c2cc3ccccc3o2)c1 17.8 µM [inhibitor, single point]
O=C(/C(C=Nc1cc2c(oc1=O)CCCC2=O)=C(\O)c1ccccc1)c1ccccc1 100 µM [inhibitor, single point]
COc1ccc(OC)c(CCNC(=O)Cn2nc(C)c3c(C)n(-c4ccccc4)nc3c2=O)c1 50.1 µM [inhibitor, partial curve]
N/C(=N\OC(=O)c1ccc(Cl)cc1Cl)c1ccncc1 50.1 µM [inhibitor, partial curve]

Potency, inactive:
CCOC(=O)c1c(C)[nH]c(C=Nc2ccc(OC)cc2)c1O
CCCC(=O)N1CCCC1(C)C(=O)Nc1ccc2nc(C)ccc2c1 (stereo unspecified)
COc1ccc(/C=C/C(=O)c2ccc([N+](=O)[O-])o2)cc1
Cc1ccccc1NC(=O)CSc1nc2ccccc2o1
CN(C)c1ccc(/C=C2\CCC/C(=C\c3ccccc3)C2=O)cc1
O=C(CCNC(=O)c1ccccc1Cl)NCCCSc1ccccc1
Cc1ccc(S(=O)(=O)CC2CSc3nnc(C)c(=O)n32)cc1 (stereo unspecified)
Cc1ccnc(NC(=O)Nc2cccc(F)c2)n1
Cc1ccc(-c2cc(C(=O)N3CCCc4ccccc43)no2)cc1
Oc1c(C=Nc2cccnc2)sc2ccccc12
CN(Cc1nc2ccccc2c(=O)[nH]1)Cc1nc2ccsc2c(=O)[nH]1
COc1ccc(CNCCc2ccc([N+](=O)[O-])cc2)c(OC)c1OC
CC1([N+](=O)[O-])COC(c2cccc3ccccc23)OC1 (stereo unspecified)
NC(=O)c1ccc(N=Cc2ccc([N+](=O)[O-])s2)cc1
Cc1cc(C(=O)N2CCN(c3cc(Cl)ccc3C)CC2)on1
CC(=O)Nc1cc(-c2cccnc2)cn2c(-c3ccc(F)cc3)cnc12
CSc1ccccc1NC(=O)CN(C)CC(=O)Nc1cc(C)ccc1C
CC1=NN(C(=O)c2ccccc2)C(O)(c2ccc(Br)cc2)C1 (stereo unspecified)

Activity change, negative = inhibition, inconclusive:
CC(C)(C)NC(=O)NC(=O)COC(=O)Cc1coc2ccc3ccccc3c12 -30.8% [inhibitor]
Cc1cc(-n2c(C)cc(C(=O)CSc3nncn3C)c2C)no1 -3.94% [inhibitor]
